According to the supplement of paper PMC12217912:
The other results are listed elsewhere or left out. The full chains were built here from the parent and the listed change. Values near 0.05 are background.

B1: TEV protease; numbered along this chain (parent)
chain: MGESLFKGPRDYNPISSSICHLTNESDGHTTSLYGIGFGPFIITNKHLFRRNNGTLVVQSLHGVFKVKDTTTLQQHLVDGRDMIIIRMPKDFPPFPQKLKFREPQREERICLVTTNFQTKSMSSMVSDTSCTFPSGDGIFWKHWIQTKDGQCGSPLVSTRDGFIVGIHSASNFTNTNNYFTSVPKNFMELLTNQEAQQWVSGWRLNADSVLWGGHKVFMVKPEEPFQPVKEATQL

Variants of: B1
Assay: raw area under fraction-flipped curve 0-4 h after induction (AUC4h, not background-subtracted), DNA-recorder readout of cleavage of the substrate (dimensionless); higher = more cleavage of the substrate by the protease variant
Details: temperature: 34 °C; time window: 0-4 h after rhamnose induction
Experimental: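 In vivo DNA recorder in E. coli TOP10(DE3) ΔrhaA at 34 °C. Each TEVp single-site mutant (parent TEVp 0) is paired with a single-site variant of the 7-mer TEVs (canonical ENLYFQ|S). The substrate sits between flexible linkers in a Bxb1-sfGFP-TEVs-SsrA fusion, so cleavage stabilises Bxb1 and speeds flipping of a recombination array, read by NGS. The value is the raw area under the fraction-flipped curve over 0-4 h after rhamnose induction (AUC4h), with ≥20 reads per time point. It is not background-subtracted; inactive controls average about 0.047.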
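Also: Bxb1 expression induced with 0.2% (w/v) L-rhamnose at OD600 near 0.5, cultures sampled hourly, flipped fraction per protease–substrate barcode pair counted by paired-end Illumina sequencing.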

Variant	area with substrate ECLYFQS	area with substrate EDLYFQS	area with substrate EGLYFQS	area with substrate EILYFQS	area with substrate EKLYFQS	area with substrate ELLYFQS	area with substrate EMLYFQS	area with substrate EQLYFQS	area with substrate ERLYFQS	area with substrate ESLYFQS	area with substrate ETLYFQS	area with substrate EELYFQS	area with substrate EPLYFQS	area with substrate EVLYFQS	area with substrate EWLYFQS	area with substrate EYLYFQS	area with substrate EFLYFQS	area with substrate EHLYFQS
Q194R	0.0819	0.127	0.102	0.107	0.0951	0.0857	0.103	0.0997	0.131	0.111	0.106	–	–	–	–	–	–	–
R10C	–	0.0947	0.0807	0.096	–	–	–	0.122	–	0.0885	–	0.0975	0.128	0.0694	0.0608	0.114	–	–
V67T	–	0.0995	–	0.0754	0.0653	0.0812	–	–	–	0.0803	–	0.0942	–	0.0628	–	–	–	–
G166R	0.0531	0.0544	0.0695	0.0263	–	0.0512	0.0322	0.0549	–	0.058	0.0421	0.05	–	0.0472	0.0482	–	0.0453	–
H168W	0.025	0.0389	–	0.0574	0.0829	0.0596	0.062	0.058	0.0626	0.0613	0.0521	0.0737	0.0573	0.0589	0.0465	0.0605	–	0.0587
K230E	0.0929	–	0.102	0.0835	0.113	0.094	0.129	–	0.101	0.101	–	–	0.102	0.0932	0.0991	0.114	–	0.0993
Q227I	0.115	–	–	0.0896	0.0787	–	0.107	0.0967	0.0911	0.122	–	0.121	0.122	0.113	–	–	–	0.114
I167T	0.0781	0.0828	0.0545	0.0627	0.0577	0.0528	0.0786	0.0676	0.0643	0.0724	–	0.105	0.0715	0.0603	0.0658	0.0645	0.0494	0.0811
I167W	0.0542	0.0632	0.0531	0.051	0.0076	0.0546	0.0603	0.049	0.0457	0.0535	–	0.049	0.0536	0.0588	0.126	0.0515	–	0.0583
F163R	0.107	–	0.106	–	0.0898	–	0.129	–	0.124	0.134	–	0.105	–	0.0986	0.0862	0.12	–	0.116
L205W	0.0848	0.121	–	–	–	0.0706	–	–	0.0681	0.0539	0.0846	–	0.0999	0.0902	0.0828	–	0.114	–
Q197G	0.101	0.103	0.075	0.0794	0.0979	0.0886	0.0761	0.102	–	–	0.118	0.118	–	–	0.113	–	–	0.105
V217A	0.0666	0.0947	0.0637	0.0726	0.0754	0.0739	–	0.0716	–	0.0888	0.0566	–	0.0709	–	0.0296	0.0834	–	0.0928
G213F	0.0526	0.064	–	0.0745	0.0532	–	–	–	0.0646	0.0598	0.0481	0.0611	–	0.057	0.0706	0.0625	0.0808	–
